Among the data in PubChem BioAssay AID463173 (ICCB-Longwood Screening Facility, Harvard Medical School, 2010) are survival values, retold here.

Molecules are shown by their SMILES. Screen size: about 52,000 compounds; about 1,700 (3.3%) were called active. No stated cut-off is given here; in the data, active means survival mostly below about 52% (no sharp cut-off); inactive means mostly above about 56%. This is one part of the list.

The subject of the assay is Wild type. The experiment in a line: S. aureus survival, RN4220 and DeltatarO strains – OD600, teichoic acid synthesis inhibitors, primary screen (AID 463173). The note with it: S. aureus RN4220 wild type/DeltatarO growth, OD600, 18 h, active compounds read low, screened at 18.75 µg/mL (by protocol).
`COc1ccc2[nH]c(=O)c(CN(C(=O)c3cccc(Cl)c3)c3cccc(C)c3)cc2c1`: the survival was inactive: 81%. The value for `CCN1C(=O)c2ccccc2S(=O)c2ccc(C(=O)N3CCN(c4ccccc4OC)CC3)cc21` (centres undefined) was inactive: 86%; that for `COc1cccc(CNC(=O)CCCCCn2c(=O)[nH]c3cc(OC)c(OC)cc3c2=O)c1` was inactive: 143%. Turning to `CCOC(=O)c1c(C)[nH]c(C)c1S(=O)(=O)NCC(=O)NCc1ccccc1Cl`, the survival was inactive: 72%. Take `COc1cc(C(CC(=O)Nc2cc(C)ccn2)N2Cc3ccccc3C2=O)cc(OC)c1OC` (centres undefined): the survival was inactive: 88%.

Regarding `CN(Cc1ccccc1)C(=O)c1cc(-c2cccc(Cl)c2)on1`, the survival is active: -15%. The value for `CN1CCN(C(=O)NC2CCCCC2)CC1` was inactive: 108%; that for `CCC(Sc1nc(N)cc(=O)[nH]1)C(=O)Nc1cccc2ccccc12` (centres undefined) was inactive: 107%; that for `COc1ccccc1CNC(=O)CCCn1c(=O)c2ccccc2n(Cc2ccccc2C#N)c1=O` was inactive: 131%. Take `CN(Cc1ccccc1)C(=O)C1CCN(S(C)(=O)=O)CC1`: the survival was inactive: 96%. Consider `COc1cc(-c2oc3ccc(C)cc3c(=O)c2O)cc(OC)c1OC`, for which the survival is inactive: 70%.

Regarding `Cc1cc2c(n1-c1ccc(C(=O)NCc3ccc(OC(C)C)cc3)cc1)CCCC2`, the survival is inactive: 91%. Regarding `COc1ccccc1NC(=O)CSc1oc(-c2ccccc2)nc1S(=O)(=O)c1ccccc1`, the survival is inactive: 134%. Turning to `COc1ccc2c(c1)c1c(c(=O)n(-c3cccc(C)c3)c(=O)n1CC(=O)NCC1CCCO1)n2C` (centres undefined), the survival is inactive: 71%. `CCOc1ccccc1C(=O)Nc1ccc(S(=O)(=O)Nc2ncccn2)cc1`: the survival was inactive: 90%.

For `Cc1cccc(Cc2c(C)nc3nc(SCc4ccccc4F)nn3c2C)c1`, the survival was inactive: 91%. The value for `CCc1cccc(C)c1NC(=O)c1ccc2c(c1)CCN2S(=O)(=O)CC` was inactive: 80%. For the compound `CC(=O)Nc1ccc(NC(=O)c2cc(-c3cccs3)on2)cc1`, the survival was inactive: 95%. The value for `O=C(CSC1=Nc2ccccc2N=C(c2ccc(F)cc2)C1)Nc1ccc(Cl)cc1` was inactive: 92%; that for `Cc1n(O)c2c3c(c4c(c2[n+]1[O-])n(O)c(C)[n+]4[O-])[n+]([O-])c(C)n3O` was inactive: 104%; that for `COc1ccc(OC)c(NC(=O)Cn2c(=O)n(Cc3nc(C)no3)c(=O)c3ccccc32)c1` was inactive: 72%. For the compound `COc1ccc(Cl)cc1NC(=O)NCCc1c(C)nn(C)c1C`, the survival was active: -3%. With `COc1ccc(Nc2ncnc3onc(C)c23)c(OC)c1` the figure was inactive: 68%; with `Cc1ccc(Sc2c(C)nn(C(=O)c3ccc(Br)cc3)c2C)cc1`, active: 13%; with `COc1ccccc1CNS(=O)(=O)c1ccc2c(c1)CC(C)N2C(=O)C1CCC1` (centres undefined), inactive: 126%. The value for `COc1ccc(N2CCN(C(=O)C(C)n3c(=O)cc(C(F)(F)F)c4c(C)nn(C)c43)CC2)cc1` (centres undefined) was inactive: 89%. With `Cn1cnc(S(=O)(=O)N2CCCC(C(=O)NCc3ccccc3)C2)c1` (centres undefined) the figure was inactive: 78%; with `Cc1cccc(N2CCN(C(=O)Cn3ncc4c([nH]c5ccccc54)c3=O)CC2C)c1` (centres undefined), inactive: 74%.

With `COc1ccc(-c2cc(C)no2)cc1S(=O)(=O)NC1CCC(C)CC1` (centres undefined), the survival is inactive: 78%. The value for `CCOc1ccc(NC(=O)c2cc(C)nc3c2c(C)nn3-c2cccc(F)c2)cc1` was inactive: 72%; that for `CN1CCCc2cc(CN)ccc21` was inactive: 121%; that for `Cc1ccc(NC(=O)C2CCCN2S(=O)(=O)c2ccc3c(c2)C(C)(C)C(=O)N3C)cc1` (centres undefined) was inactive: 84%. With `Cc1ccc(S(=O)(=O)c2nc(-c3ccco3)oc2SCc2ccc(F)cc2)cc1` the figure was inactive: 81%; with `CC1(C(=O)NC2CCCCC2)Cc2ccccc2C(=O)N1Cc1ccc(F)cc1` (centres undefined), inactive: 119%; with `CCOc1ccc(-n2ccnc2SCC(=O)Nc2ccc3c(c2)OCO3)cc1`, inactive: 71%. With `O=C(CSc1nc2ccccc2nc1Cc1ccccc1)Nc1ccccc1C(F)(F)F` the figure was inactive: 77%; with `COc1ccc(S(=O)(=O)NCCc2sc3nc(-c4ccc(C)cc4)nn3c2C)cc1F`, inactive: 81%. With `CCOc1ccc(CNC(=O)c2cnc3sc(N(CC)CC)nn3c2=O)cc1`, the survival is inactive: 75%.

Take `O=C(NCCS(=O)(=O)N1CCN(c2ccccc2F)CC1)C1CC(=O)N(c2ccccc2)C1` (centres undefined): the survival was inactive: 73%. Take `COc1cccc(NC(=O)c2c(N3CCCC3=O)c3cc(C)ccc3n2C)c1`: the survival is inactive: 77%. The value for `CCOC(=O)CCCN1C(=O)CCn2nc(-c3cn(C)c4ccccc34)cc21` was inactive: 68%. The value for `CCOc1ccc(CCNC(=O)c2cccc(-n3c(C)nc4cccnc43)c2C)cc1` was inactive: 85%.

For `O=C(Nc1ccc(C(=O)OCc2cc(=O)n3nc(C4CC4)sc3n2)cc1)c1cccc(Cl)c1`, the survival was inactive: 60%. As for `CCc1ccccc1NC(=O)C(CC)Oc1ccccc1-c1nnc(-c2ccccc2)o1` (centres undefined), the survival was active: 0%.

In the case of `COc1ccc(S(=O)(=O)N(Cc2cc3cc4c(cc3n3nnnc23)OCO4)C2CCCCC2)cc1`, the survival was inactive: 104%. Turning to `CCCCN(Cc1ccccc1)S(=O)(=O)c1cc(Br)cc2c1N(C(C)=O)CC2`, the survival was inactive: 83%. The value for `C=CCNc1nc(NCc2ccco2)nc(OCC)n1` was inactive: 109%; that for `CC(=O)Nc1nnc(CC(C)(C)C)s1` was inactive: 98%.

As for `O=C1CC(c2ccc(Cl)cc2)c2cc3c(cc2N1)OCCO3` (centres undefined), the survival was inactive: 82%. Turning to `COc1ccc(C(=O)Nc2c(C(=O)c3ccc(F)cc3)oc3ccccc23)cc1`, the survival is inactive: 91%. With `CCc1cccc(C)c1NC(=O)C1CCN(S(=O)(=O)c2cccc3nonc23)CC1` the figure was inactive: 96%; with `CCOCCCNC(=O)c1cc(=O)[nH]c2ccc(S(=O)(=O)N3CCCC3)cc12`, inactive: 89%. Take `CCOc1ccc(CNC(=O)c2cccn2-c2nnc(N3CCCCC3)s2)cc1OC`: the survival is inactive: 101%. With `CCCCC(=O)Nc1c(C(=O)N2CCN(c3ccccc3)CC2)oc2ccccc12` the figure was inactive: 80%. With `CCCSc1ncc(Cl)c(C(=O)Nc2scc(-c3ccc(C)cc3)c2C(=O)OCC)n1` the figure was inactive: 87%; with `CCCCCn1c(=O)[nH]c2cc(C(=O)N3CCN(c4cccc(OC)c4)CC3)ccc2c1=O`, inactive: 72%; with `COc1ccc(-c2nc3c(c(SCC(=O)Nc4ccccc4OC)n2)Cc2cccc(C)c2O3)cc1`, inactive: 88%. On to `Cc1cc(C)cc(OCc2cc(=O)n3c4c(sc3n2)CCCC4)c1`, for which the survival is inactive: 91%. On to `CC(C)Oc1ccc(CNC(=O)C2CCCCN2S(=O)(=O)c2ccc(F)cc2)cc1` (centres undefined), for which the survival was inactive: 73%. For `CC(=O)Nc1nc2ccc3ccccc3c2s1`, the survival is inactive: 101%.

For the compound `CCC(C)NC(=O)Cc1ccc(NC(=O)N2CCCCc3ccccc32)cc1` (centres undefined), the survival is inactive: 78%.

Turning to `O=C(CS(=O)(=O)c1cccc2nsnc12)Nc1ccc(F)cc1F`, the survival is inactive: 81%. With `Cc1ccc(-n2c(=O)c3oc4ccccc4c3n(CC(=O)Nc3ccc(F)c(Cl)c3)c2=O)cc1C` the figure was inactive: 67%. With `COc1ccc(CN(C(=O)CN2C(=O)COc3ccccc32)C2CCCC2)c(OC)c1` the figure was inactive: 109%; with `N#Cc1ccccc1NC(=O)C(=O)NCC(c1ccc2c(c1)OCO2)N1CCOCC1` (centres undefined), inactive: 73%. With `CC(=O)N1CCOc2cc(S(=O)(=O)Nc3c(C)cccc3C(C)C)c(Cl)cc21`, the survival was inactive: 78%. With `CC(C)CCNC(=O)c1c2c(nc3ccccc13)C(=O)N(C1CCCCC1)C2`, the survival was inactive: 78%. With `Cc1ccc(-c2nc(CS(=O)CC(=O)N3CCN(c4ccc(F)cc4)CC3)c(C)o2)cc1` (centres undefined), the survival is inactive: 72%. With `O=C(Nc1ccccc1F)C1CCN(S(=O)(=O)c2ccc3c(c2)CCCN3C(=O)C2CCC2)CC1`, the survival is inactive: 74%. As for `CCCCN(C)C(=O)c1ccc2c(c1)N(Cc1ccc(F)cc1)C(=O)c1ccccc1S2(=O)=O`, the survival is inactive: 104%. For the compound `CC(=O)c1ccc(NC(=O)COc2ccccc2-c2nc(C(C)C)no2)cc1`, the survival was inactive: 80%. With `CCOC(=O)c1c(C)[nH]c(C)c1S(=O)(=O)NCC(=O)Nc1cc(Cl)ccc1OC`, the survival is active: -6%.

As for `COc1ccc(C)cc1Nc1c2c(nc3ccccc13)CCC2`, the survival is inactive: 81%. With `N#C/C(=C\c1ccc(N2CCCCC2)o1)C(N)=O` the figure was inactive: 112%; with `O=C(COc1ccccc1)Nc1nnc2n1CCS2`, inactive: 88%; with `CCC(=O)Nc1ccc(-c2nc3ccc(NC(=O)CC)cc3[nH]2)cc1`, inactive: 113%. The value for `CCOC(=O)C1CCN(S(=O)(=O)c2cc(-c3cc(C)no3)ccc2OC)CC1` was inactive: 105%; that for `CCc1cccc2c(C=C(C#N)C#N)cn(CC(=O)N3CCCCCC3)c12` was inactive: 100%; that for `CC(C)(C)C(=O)Cn1c(=O)n(CCCCCC(=O)NCc2ccccc2Cl)c(=O)c2sccc21` was inactive: 81%. With `Cc1ccc(NC(=O)C(Cc2ccccc2)NS(=O)(=O)c2ccc3c(c2)oc(=O)n3C)cc1C` (centres undefined), the survival was inactive: 77%. The value for `CC(=O)c1ccc(N2CCN(C(=O)Nc3cn(CC(C)C)c(=O)c4ccccc34)CC2)cc1` was inactive: 69%.

Regarding `O=C(Cc1ccccc1)Nc1nc2ccccc2s1`, the survival is inactive: 127%. The value for `COc1cc(OC)cc(-c2nc3nc(C)c(CCC(=O)Nc4ccccc4)c(C)n3n2)c1` was inactive: 74%; that for `O=C(CSc1nc(-c2ccco2)nc2cc(=O)[nH]n12)Nc1ccc(F)cc1` was inactive: 65%; that for `Cc1ccc(C)c(NC(=O)CSc2nnc(NC(=O)Nc3ccccc3)s2)c1` was inactive: 68%. As for `CCc1ccc(NC(=O)Cn2c(C(=O)OC)cc3oc(C)cc32)cc1`, the survival was inactive: 88%. On to `CCN1CCN(Cc2nc3cc(NC(=O)c4cccc([N+](=O)[O-])c4)ccc3n2CC)CC1`, for which the survival was inactive: 116%. With `COc1ccc(C2CC(=O)Nc3cc4c(cc32)OCO4)c(OC)c1` (centres undefined) the figure was inactive: 98%; with `Cc1ccccc1OCC(=O)Nc1ccc2[nH]c(=O)sc2c1`, inactive: 125%.
